# Source: a collection of fitness landscapes (doi:10.1016/j.celrep.2020.107928)
# Whole data set: some 81,000 sequences, median “one-hybrid fitness for binding NBS DNA” near -0.1, cut for the highest 2% near 0.36. The list shows a part of the results.
# B1: Caulobacter ParB omega fusion; a variant is named by its letters at X, in order, B8GW30 (parent)
# chain: MESVVVGEPGMSEGRRGLGRGLSALLGEVDAAPAQAPGEQLGGSREAPIEILQRNPDQPRRTFREEDLEDLSNSIREKGVLQPILVRPSPDTAGEYQIVAGERAWRAAQRAGLKTVPIMVRELDDLAVLEIGIIENVQRADLNVLEEALSYKVLMEKFERTQENIAQTIGKSXSHVANXMRLLXLPDEVQSYLVSGELTAXHARAIAAAADPVALAKQIIEGGLSVRETEALARKAPNLSAGKSKGGRPPRVKDTDTQALESDLSSVLGLDVSIDHRGSTGTLTITYATLEQLDDLCNRLTRGI
# Variants of: B1
# Assay: one-hybrid fitness for binding NBS DNA (the Noc-binding site; scaled: cognate 1, non-cognate 0); higher = stronger binding
# Settings: with NBS DNA site
# Method in brief: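 Values were rescaled so that cognate is 1 and non-cognate is 0. Each is a fitness, the log change in a variant's read ratio to wild type from Illumina reads of plasmids before and after selection, with three replicate libraries pooled and variants under 10 reads dropped. Selection of the Caulobacter ParB libraries, four specificity codons randomised, used E. coli USO with a HIS3 reporter, site 19 bp from the promoter, on M9-minus-histidine with 0.1 mM IPTG and 5 mM 3-AT for 48 hours at 37°C.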
row,Variant,one-hybrid fitness for binding NBS DNA
1,VTTK,≤ 0.2
2,HQEF,≤ 0.2
3,SLYN,≤ 0.2
4,GRHW,≤ 0.2
5,VPMR,≤ 0.2
6,TDYE,≤ 0.2
7,TIPS,≤ 0.2
8,PGAC,≤ 0.2
9,SANV,≤ 0.2
10,LVHS,≤ 0.2
11,HLQI,≤ 0.2
12,YHAG,≤ 0.2
13,KKLA,≤ 0.2
14,VRRF,≤ 0.2
15,YWHS,≤ 0.2
16,LYHI,≤ 0.2
17,TMIH,≤ 0.2
18,KRQL,≤ 0.2
19,AIHP,≤ 0.2
20,WRWW,≤ 0.2
21,DIDG,≤ 0.2
22,DAPP,≤ 0.2
23,FCSA,≤ 0.2
24,DWPE,≤ 0.2

row,Variant,one-hybrid fitness for binding NBS DNA
1,EWVM,≤ 0.2
2,TQHV,≤ 0.2
3,SYHY,≤ 0.2
4,FHYF,≤ 0.2
5,NDMP,≤ 0.2
6,SAMT,≤ 0.2
7,YSPT,≤ 0.2
8,GSML,≤ 0.2
9,PNDF,≤ 0.2
10,VVAW,≤ 0.2
11,QYYI,≤ 0.2
12,TLHV,≤ 0.2
13,ATTG,≤ 0.2
14,IAQV,≤ 0.2
15,IAVL,≤ 0.2
16,IRHN,≤ 0.2
17,YAAC,≤ 0.2
18,IESR,≤ 0.2
19,QHLC,≤ 0.2
20,PDYT,≤ 0.2
21,PNFI,≤ 0.2
22,SKSC,≤ 0.2
23,EEGT,≤ 0.2
24,EMNR,≤ 0.2

row,Variant,one-hybrid fitness for binding NBS DNA
1,GIYG,≤ 0.2
2,NERS,≤ 0.2
3,RFMW,≤ 0.2
4,RCYL,≤ 0.2
5,SVQP,≤ 0.2
6,TRLI,≤ 0.2
7,CADC,≤ 0.2
8,LCPN,≤ 0.2
9,SSDC,≤ 0.2
10,RKVR,0.478
11,GMNC,≤ 0.2
12,LGPI,≤ 0.2
13,WCSG,≤ 0.2
14,TAHT,≤ 0.2
15,KNKF,≤ 0.2
16,FRRA,≤ 0.2
17,NDWR,≤ 0.2
18,CPRD,≤ 0.2
19,KPSQ,≤ 0.2
20,TQVG,≤ 0.2
21,VCKL,≤ 0.2
22,TWTW,≤ 0.2
23,IDSA,≤ 0.2
24,RCRN,0.23

row,Variant,one-hybrid fitness for binding NBS DNA
1,HFAA,≤ 0.2
2,TQSH,≤ 0.2
3,AAPG,≤ 0.2
4,TACG,≤ 0.2
5,PRFW,≤ 0.2
6,YKYR,≤ 0.2
7,LRQR,≤ 0.2
8,CSRV,≤ 0.2
9,TQYS,≤ 0.2
10,MITW,≤ 0.2
11,RFLL,≤ 0.2
12,LNAP,≤ 0.2
13,RSWE,≤ 0.2
14,RPMT,≤ 0.2
15,PRAN,≤ 0.2
16,NRLF,≤ 0.2
17,PPWD,≤ 0.2
18,STLA,≤ 0.2
19,LDRL,≤ 0.2
20,QLKN,0.365
21,RLHY,≤ 0.2
22,RMSN,≤ 0.2
23,SMHE,≤ 0.2
24,RMCC,≤ 0.2

row,Variant,one-hybrid fitness for binding NBS DNA
1,GSTS,≤ 0.2
2,MLYE,≤ 0.2
3,LCFG,≤ 0.2
4,MYAV,≤ 0.2
5,PGSL,≤ 0.2
6,EVFG,≤ 0.2
7,KYHF,≤ 0.2
8,PKMT,≤ 0.2
9,VCRS,≤ 0.2
10,CMNL,≤ 0.2
11,CHQC,≤ 0.2
12,TTNV,≤ 0.2
13,HVVS,≤ 0.2
14,RYGV,≤ 0.2
15,IAGL,≤ 0.2
16,RNMC,≤ 0.2
17,TVCC,≤ 0.2
18,FMGG,≤ 0.2
19,LKYT,≤ 0.2
20,KAKI,≤ 0.2
21,ATWF,≤ 0.2
22,PKFP,≤ 0.2
23,YYPR,≤ 0.2
24,WTGS,≤ 0.2

row,Variant,one-hybrid fitness for binding NBS DNA
1,LMEG,≤ 0.2
2,MGRH,≤ 0.2
3,TRPY,≤ 0.2
4,HHIR,≤ 0.2
5,DRNY,≤ 0.2
6,WFGC,≤ 0.2
7,HISY,≤ 0.2
8,PWQK,≤ 0.2
9,LTKL,≤ 0.2
10,EAYN,≤ 0.2
11,QRYD,0.222
12,YVYS,≤ 0.2
13,MTGA,≤ 0.2
14,SQAF,≤ 0.2
15,DQKV,≤ 0.2
16,PDHF,≤ 0.2
17,ETMS,≤ 0.2
18,AFGG,≤ 0.2
19,KSTE,≤ 0.2
20,SGQR,≤ 0.2
21,KPVS,≤ 0.2
22,WFHR,≤ 0.2
23,SCHA,≤ 0.2
24,QSYS,0.337

row,Variant,one-hybrid fitness for binding NBS DNA
1,ATTM,≤ 0.2
2,QCPL,≤ 0.2
3,AWSC,≤ 0.2
4,QKTS,0.475
5,CIES,≤ 0.2
6,HNIL,≤ 0.2
7,FQVS,≤ 0.2
8,WCPC,≤ 0.2
9,RCTR,0.534
10,NCNR,≤ 0.2
11,LIAY,≤ 0.2
12,MPSF,≤ 0.2
13,GYIM,≤ 0.2
14,PTPV,≤ 0.2
15,EDVG,≤ 0.2
16,KVFG,≤ 0.2
17,LVEF,≤ 0.2
18,CTHR,≤ 0.2
19,KKLV,≤ 0.2
20,RILS,0.205
21,KCSE,≤ 0.2
22,KYLC,≤ 0.2
23,ASTG,≤ 0.2
24,VHLR,≤ 0.2

row,Variant,one-hybrid fitness for binding NBS DNA
1,GQKN,≤ 0.2
2,QSKT,0.699
3,DMSV,≤ 0.2
4,KLSG,≤ 0.2
5,VRCC,≤ 0.2
6,NRHC,≤ 0.2
7,DKTV,≤ 0.2
8,HTEM,≤ 0.2
9,NSNR,≤ 0.2
10,DREC,≤ 0.2
11,CVDG,≤ 0.2
12,GTAL,≤ 0.2
13,NSRV,≤ 0.2
14,IEPE,≤ 0.2
15,HETW,≤ 0.2
16,LAGL,≤ 0.2
17,QPRQ,≤ 0.2
18,WIRL,≤ 0.2
19,LLEL,≤ 0.2
20,WYKL,≤ 0.2
21,SYHI,≤ 0.2
22,HGWW,≤ 0.2
23,DQDC,≤ 0.2
24,NAIT,≤ 0.2

row,Variant,one-hybrid fitness for binding NBS DNA
1,SPAP,≤ 0.2
2,WVMC,≤ 0.2
3,VEYS,≤ 0.2
4,NVIG,≤ 0.2
5,RWRQ,≤ 0.2
6,ASRH,≤ 0.2
7,IQME,≤ 0.2
8,TEKD,≤ 0.2
9,ILDL,≤ 0.2
10,TLSA,≤ 0.2
11,AKTC,≤ 0.2
12,TSIA,≤ 0.2
13,PSTP,≤ 0.2
14,DDER,≤ 0.2
15,NFTG,≤ 0.2
16,TQKG,≤ 0.2
17,GPPI,≤ 0.2
18,QQQW,≤ 0.2
19,ENNC,≤ 0.2
20,YTRL,≤ 0.2
21,FSPW,≤ 0.2
22,HGQS,≤ 0.2
23,YSHR,≤ 0.2
24,DLSQ,≤ 0.2

row,Variant,one-hybrid fitness for binding NBS DNA
1,HPKV,≤ 0.2
2,ICRC,≤ 0.2
3,QTDA,0.255
4,SFVR,≤ 0.2
5,QDKA,≤ 0.2
6,WLKN,≤ 0.2
7,DAQG,≤ 0.2
8,ENSP,≤ 0.2
9,CCGR,≤ 0.2
10,WALS,≤ 0.2
11,QPYR,≤ 0.2
12,LQYL,≤ 0.2
13,PPPR,≤ 0.2
14,FVVV,≤ 0.2
15,VYSR,≤ 0.2
16,THFM,≤ 0.2
17,YALR,≤ 0.2
18,KNQG,≤ 0.2
19,DEAT,≤ 0.2
20,WHAL,≤ 0.2
21,KFCS,≤ 0.2
22,LRKC,≤ 0.2
23,TCVF,≤ 0.2
24,SLWW,≤ 0.2

row,Variant,one-hybrid fitness for binding NBS DNA
1,IDNW,≤ 0.2
2,VKAI,≤ 0.2
3,MHVN,≤ 0.2
4,ARTA,≤ 0.2
5,RARH,0.306
6,SPPH,≤ 0.2
7,RTNL,≤ 0.2
8,TCNS,≤ 0.2
9,PSSL,≤ 0.2
10,RAWW,≤ 0.2
11,SSTY,≤ 0.2
12,IPSL,≤ 0.2
13,SSRW,≤ 0.2
14,TNPG,≤ 0.2
15,RAMH,≤ 0.2
16,YSWL,≤ 0.2
17,QKKY,0.498
18,NESA,≤ 0.2
19,WGHP,≤ 0.2
20,ANGM,≤ 0.2
21,GARE,≤ 0.2
22,NRTP,≤ 0.2
23,CFYS,≤ 0.2
24,RCSP,≤ 0.2

row,Variant,one-hybrid fitness for binding NBS DNA
1,TEKR,0.248
2,DKGG,≤ 0.2
3,VPLV,≤ 0.2
4,QMHW,≤ 0.2
5,GPPL,≤ 0.2
6,ASLV,≤ 0.2
7,SHEV,≤ 0.2
8,SVGS,≤ 0.2
9,THAM,≤ 0.2
10,WLSD,≤ 0.2
11,DLGA,≤ 0.2
12,GTVK,≤ 0.2
13,NQSG,≤ 0.2
14,RYPW,≤ 0.2
15,MECV,≤ 0.2
16,HWPG,≤ 0.2
17,IIGG,≤ 0.2
18,NNMG,≤ 0.2
19,CFLY,≤ 0.2
20,QDLY,≤ 0.2
21,PHGP,≤ 0.2
22,QHIF,≤ 0.2
23,SWTT,≤ 0.2
24,WQKG,≤ 0.2

row,Variant,one-hybrid fitness for binding NBS DNA
1,RFGI,≤ 0.2
2,EMND,≤ 0.2
3,SKLG,≤ 0.2
4,SDNL,≤ 0.2
5,PRHM,≤ 0.2
6,RRCA,0.584
7,TTFG,≤ 0.2
8,IIKC,≤ 0.2
9,LDHG,≤ 0.2
10,YYSY,≤ 0.2
11,WMWG,≤ 0.2
12,CCRY,≤ 0.2
13,PACD,≤ 0.2
14,YAKF,≤ 0.2
15,EEPR,≤ 0.2
16,AAWL,≤ 0.2
17,QMNE,≤ 0.2
18,KGFY,≤ 0.2
